Some of the results follow. Further columns of the screen follow, without active or inactive calls.
Experiment: compounds boosting herpes simplex virus growth – fold increase, host cell viability (AID 1956); note: tested in PC3 cells
Conditions: HSV replication augmentation in cells; fold increase: measured here: primary screen fold increase 10 uM, at 10 µM, stronger effect = higher value; viability: measured here: host cell viability series, at 25 µM, stronger effect = lower value
In the case of `O=c1c(O)cccc2cc(O)c(O)c(O)c12`, the fold increase is reported as 1.66 and the viability is reported as 97.4%.
`CN1C(=O)C(N=Nc2ccccc2C(=O)O)N(C)C1=S` (configuration not stated) showed a fold increase of 1.65.
In the case of `O=c1ccc2ccc(Oc3ccc(Cl)cc3[N+](=O)[O-])cc2o1`, the fold increase is reported as 1.79 and the viability is reported as 96.3%.
`CC(=O)Nc1ccc(S(=O)(=O)Oc2ccccc2N2CCCCC2)cc1` gave a fold increase of 1.83 and a viability of 86%.
In the case of `CCCCN1C(=O)/C(=C/C=C2\SCCN2C)SC1=S`, the fold increase is reported as 3.9 and the viability is reported as 89.9%.
Compound `COCC[N+]1(C)CCCCC1` has a fold increase of 1.36 and a viability of 101%.
`COc1cccc(C(=O)N2CCN(CCCc3ccccc3)CC2)c1OC` gave a fold increase of 1.42 and a viability of 94.4%.
In the case of `COc1ccccc1C1C=C(c2ccc(Cl)cc2)Nc2nc(NS(C)(=O)=O)nn21` (configuration not stated), the fold increase is reported as 2.8 and the viability is reported as 94.6%.
`COc1c(O)cccc1-c1nnn(CCC(=O)OCC(=O)c2ccccc2)n1` showed a fold increase of 1.58 and a viability of 99.9%.
`O=C1CCC(=O)N1c1cccc(-c2nc3ccccc3o2)c1` gave a fold increase of 1.43 and a viability of 95.3%.
With `CCCCc1ccc(-c2csc(/C(C#N)=C/c3ccco3)n2)cc1` the fold increase was 1.38 and the viability was 97%.
`CCOc1cc(/C=C2\SC(=S)N(NC(=O)c3cccnc3)C2=O)ccc1O` gave a fold increase of 3.78 and a viability of 97.5%.
Work on `O=C1/C(=C/C=C/c2ccccc2)Oc2c1ccc(O)c2CN1CCN(CCO)CC1` yielded a fold increase of 2.24 and a viability of 93.1%.
Work on `COc1ccc(NC(=O)c2sc3nc(-c4cccnc4)ccc3c2N)cc1OC` yielded a fold increase of 1.75 and a viability of 88.4%.
With `N#CC(=C=[N-])c1nc2ccccc2nc1-[n+]1ccccc1` the fold increase was 1.32.
Compound `NC(=O)C1CCN(c2c([N+](=O)[O-])cc(C(F)(F)F)cc2[N+](=O)[O-])CC1` has a fold increase of 1.34 and a viability of 94.9%.
`O=C(N/N=C/c1ccco1)Nc1ccccc1` gave a fold increase of 1.41 and a viability of 96.5%.
With `COc1ccc(C)cc1NS(=O)(=O)c1cc(C)ccc1C` the fold increase was 1.7 and the viability was 89.7%.
Compound `S=C(Nc1ccccc1Oc1ccccc1)Nc1cccc(Cl)c1Cl` has a fold increase of 1.37 and a viability of 96.8%.
For `Cc1ccc(-c2nnn(CC(=O)N(c3cccc(F)c3)C(C(=O)NC3CCCC3)c3ccco3)n2)o1` (configuration not stated), the fold increase was 1.42 and the viability was 105%.
With `Cc1cc(C)c[n+](-c2[nH]c(=O)sc2/C=N/NC([S-])=Nc2ccccc2)c1` the fold increase was 2.66 and the viability was 90.3%.
In the case of `O=C(CSCc1ccccc1)NNC(=S)Nc1cccc(Cl)c1Cl`, the fold increase is reported as 1.19.
`Cc1nnc(SCc2cnc(-c3ccc(C(C)C)cc3)s2)n1C` gave a fold increase of 1.33 and a viability of 85.5%.
For `O=C(N/N=C/c1c(O)n(-c2ccccc2Cl)c(=O)c2ccccc12)c1cccnc1`, the fold increase was 1.8 and the viability was 70.8%.
`Cc1cc2c(c(=O)o1)C(CC(C)C)C(C#N)=C(N)O2` (configuration not stated) showed a fold increase of 1.35 and a viability of 102%.
Compound `CCCN1C(=O)/C(=C/c2c(NCCCOC(C)C)nc3c(C)cccn3c2=O)SC1=S` has a fold increase of 2.56 and a viability of 89.7%.
Work on `O=S(=O)(c1ccccc1)c1cc(O)ccc1O` yielded a fold increase of 1.37 and a viability of 97.2%.
`CCOc1ccc(N=C2NC(=O)S/C2=C\c2ccc(O)cc2)cc1` gave a fold increase of 1.99 and a viability of 89.9%.
Compound `CSc1nsc(/C=C/Nc2ccc(F)cc2F)c1C#N` has a fold increase of 1.64 and a viability of 97.1%.
In the case of `N#Cc1c(NC(=S)NC(=O)c2ccccc2)sc2c1CCN(CCc1ccccc1)C2`, the fold increase is reported as 5.39.
Work on `N#C/C(=C\c1ccccn1)c1nc2ccccc2s1` yielded a fold increase of 7.95.
Work on `Cc1cc(=O)oc(C)c1C(=O)Nc1ccc2ncccc2c1` yielded a fold increase of 1.58 and a viability of 101%.
For `CCOC(=O)C1=C(C)N=c2s/c(=C\c3cccn3C)c(=O)n2C1c1cccc(OC)c1OC` (configuration not stated), the fold increase was 2.11 and the viability was 80.2%.
Compound `COc1ccc(NS(=O)(=O)c2cc([N+](=O)[O-])ccc2N/N=C\c2c(C)[nH]c3ccccc23)cc1` has a fold increase of 1.18 and a viability of 84.9%.
Work on `CCCCOCCCn1c(-c2ccco2)nc2nc3ccccc3nc21` yielded a fold increase of 1.45 and a viability of 92.2%.
In the case of `Cc1nnc(-c2ccccc2)c(=O)n1/N=C/c1c(O)ccc2ccccc12`, the fold increase is reported as 1.97.
`COc1cccc(C2=CC(c3ccc(N(C)C)cc3)n3ncnc3N2)c1` (configuration not stated) gave a fold increase of 7.22 and a viability of 90.9%.
Compound `O=C(NNc1cc(Cl)ccc1Cl)C1CCC1` has a fold increase of 1.34 and a viability of 95.9%.
In the case of `N#C/C(=C/c1ccc(N2CCCCC2)o1)C(=O)NCCc1c[nH]c2ccccc12`, the fold increase is reported as 4.11 and the viability is reported as 93.8%.
For `CCN(CC)C(=O)c1ccc2c(c1[N+](=O)[O-])C(=O)c1ccccc1C2=O`, the fold increase was 1.39 and the viability was 84.7%.
In the case of `CC1=C(C(=O)N(C)C)C(c2cccc(Cl)c2)NC(=O)N1` (configuration not stated), the fold increase is reported as 1.6 and the viability is reported as 88.3%.
`O=C1NC(=Nc2cccnc2)S/C1=C\c1cccc(F)c1` gave a fold increase of 1.34 and a viability of 92.7%.
Compound `CCOC(=O)Cc1cc(=O)n(-c2nc3ccccc3s2)[nH]1` has a fold increase of 1.16.
`COc1ccc(C(C)(C)C)cc1NC(=O)c1ccoc1C` gave a fold increase of 1.34 and a viability of 94.5%.
Work on `Cn1cccc1/C=C1\CC(C(C)(C)C)C/C(=C\c2cccn2C)C1=O` (configuration not stated) yielded a fold increase of 4.69 and a viability of 86.2%.
With `O=C1NC(c2ccccc2)=N/C1=C/c1ccco1` the fold increase was 1.35 and the viability was 96.2%.
`N#CCCN1CCN(S(=O)(=O)c2ccc(S(=O)(=O)NCC3CCCO3)cc2)CC1` (configuration not stated) gave a fold increase of 1.33 and a viability of 94.2%.
In the case of `COc1cc2c(cc1OC)C1=CC(=O)C(=O)N1C(C)(C)C2`, the fold increase is reported as 4.59.
Work on `O=C(CSc1nnc(Cc2cc(=O)[nH]c(=O)[nH]2)n1-c1ccc(Cl)cc1)NC1CCCC1` yielded a fold increase of 1.55 and a viability of 94.3%.
With `N#C/C(C(N)=O)=C1/SC(Cc2ccc(F)cc2)C(=O)N1c1ccccc1` (configuration not stated) the fold increase was 1.35 and the viability was 95.6%.
Work on `COc1ccccc1/C=C/C=C1\Oc2c(ccc(O)c2CN2CCN(CCO)CC2)C1=O` yielded a fold increase of 3.67.
For `COc1ccc(C2SCC(C(=O)O)N2C(C)=O)cc1OC` (configuration not stated), the fold increase was 1.39 and the viability was 101%.
In the case of `COc1cccc2c1C(=O)c1c(O)c3c(c(O)c1C2=O)C[C@@](O)(C(=O)CO)C[C@@H]3O[C@H]1C[C@H](N)[C@H](O)[C@H](C)O1`, the fold increase is reported as 4.34 and the viability is reported as 31.6%.
Compound `C=CCc1c(C)nc(-c2ccccc2)nc1Nc1ccccc1O` has a fold increase of 1.37 and a viability of 82.8%.
Compound `CCOc1cc(/C=C2/NC(=O)N(CC(=O)Nc3cccc(C)c3)C2=O)ccc1OC` has a fold increase of 1.24.
`CCS(=O)(=O)C1=NN2C(=N)/C(=C\c3ccc(SCc4ccco4)o3)C(=O)N=C2S1` showed a fold increase of 2.49 and a viability of 91.8%.
In the case of `COc1ccc(-c2nn(-c3ccccc3)cc2C(=O)Nc2nc(CC(C)=O)ns2)cc1`, the fold increase is reported as 1.12.
`COc1ccc(OCC(=O)OC2CCCN(C)C2)cc1` (configuration not stated) gave a fold increase of 1.45 and a viability of 97%.
`CC(C)OC(=O)c1c(NS(=O)(=O)c2ccccc2)sc2c1CCCC2` showed a fold increase of 1.12.
With `CCCc1nc(SCC(N)=O)[nH]c(=O)c1CC` the fold increase was 1.34 and the viability was 99.7%.
For `COc1ccccc1NC(=O)NCCN1C(=O)C2C3C=CC(C3)C2C1=O` (configuration not stated), the fold increase was 1.45 and the viability was 107%.
With `N#C/C(=C\c1ccc(N2CCCCC2)o1)C(=O)Nc1cccc(Br)c1` the fold increase was 5.87 and the viability was 95.6%.
For `Cc1cccc(C=Nc2ccc3c4c(cccc24)CC3)c1O`, the fold increase was 1.87 and the viability was 92.2%.
`O=C(O)c1cc(N/N=C/c2ccncc2)ccc1Cl` showed a fold increase of 1.36 and a viability of 98.4%.
`COc1ccc(C2c3sc(=O)[nH]c3SC3C(=O)N(c4ccccc4)C(=O)C32)cc1` (configuration not stated) showed a fold increase of 1.47 and a viability of 96.6%.
With `COC(=O)N(NC(=O)C(O)(c1ccccc1)c1ccccc1)c1ccccc1` the fold increase was 1.33 and the viability was 92.3%.
In the case of `CCn1c(SCC(=O)N2CCOCC2)nc2oc3c(Cl)cc(Cl)cc3c(=O)c2c1=O`, the fold increase is reported as 1.42 and the viability is reported as 50.7%.
In the case of `CC(C)CNS(=O)(=O)c1ccc(CCC(=O)Nc2ccc3c(c2)OCO3)cc1`, the fold increase is reported as 1.13 and the viability is reported as 93.3%.
With `c1csc(-c2nnsc2-c2nc3ccccc3[nH]2)c1` the fold increase was 1.61.
Work on `CNc1cc(CSC)nc(SCc2ccc(Cl)c(Cl)c2)n1` yielded a fold increase of 1.58 and a viability of 92.6%.
Compound `CC1CCCC2(C1)NC(=S)N(c1ccccc1)N2` (configuration not stated) has a fold increase of 1.42 and a viability of 101%.
With `CCCCCCn1c(=O)[nH]c2nc3cc(N)ccc3nc2c1=O` the fold increase was 9.44 and the viability was 87.9%.
`COc1cc(/C=C2\SC(=Nc3c(C)n(C)n(-c4ccccc4)c3=O)NC2=O)ccc1O` showed a fold increase of 1.41.
Work on `CCCCN1/C(=C/c2ccc3ccccc3[n+]2CC)Sc2ccccc21` yielded a fold increase of 8.27 and a viability of 38%.
`N#CC1=C(N)Oc2c(oc(CO)cc2=O)C1c1cccs1` (configuration not stated) gave a fold increase of 1.35 and a viability of 92.6%.
For `COc1cc(/C=C2\SC(=S)N(N3CCOCC3)C2=O)ccc1O`, the fold increase was 2.48 and the viability was 96.7%.
`Cc1nn(C)c(C)c1N1C(=O)c2cccc3c(Br)ccc(c23)C1=O` showed a fold increase of 1.99 and a viability of 84.8%.
`COc1ccc(CCNC(=S)N(C)C)cc1OC` gave a fold increase of 1.35 and a viability of 104%.
In the case of `COc1ccc2c3c([nH]c2c1)C1CC2C(CC(O)C(OC)C2C(=O)O)CN1CC3` (configuration not stated), the fold increase is reported as 1.26 and the viability is reported as 98.6%.
`Nc1c(C(=O)Nc2ccc(S(=O)(=O)N3CCCC3)cc2)sc2nc3cc4c(cc3cc12)CCC4` showed a fold increase of 1.77 and a viability of 10.9%.
In the case of `O=C(O)c1ccc(COc2ccccc2C=C2C(=O)c3ccccc3C2=O)cc1`, the fold increase is reported as 1.84 and the viability is reported as 91.7%.
In the case of `Cc1ccccc1-n1c(Cn2c(=O)sc3ccccc32)nnc1SCC(=O)Nc1nccs1`, the fold increase is reported as 1.39 and the viability is reported as 93.3%.
`CC1(C)CC(=O)C(C=Nc2ccc(C(=O)c3ccccc3)cc2N=CC2=C(O)CC(C)(C)CC2=O)=C(O)C1` showed a fold increase of 1.55 and a viability of 73.9%.
In the case of `Cc1cc(C(=O)Nc2nc3c(C)cccc3s2)c(C)o1`, the fold increase is reported as 1.1.
`COC(=O)c1c(NC(=O)CN2CCCc3ccccc32)sc(C)c1C` gave a fold increase of 1.61 and a viability of 91.3%.
For `CCOC(=O)c1sc2cc([N+](=O)[O-])cc(SCC(C)C)c2c1N`, the fold increase was 3.6 and the viability was 103%.
Work on `Cc1c(-n2cc(C(=O)c3cc(F)ccc3O)cc(C#N)c2=O)c(=O)n(-c2ccccc2)n1C` yielded a fold increase of 1.77 and a viability of 92.7%.
For `Cc1c(N=C2N=C(NC(=O)c3ccc(F)cc3)c3ccccc32)c(=O)n(-c2ccccc2)n1C`, the fold increase was 3.41.
In the case of `O=C(/C=C/c1cn(CC(O)CN2CCCCC2)c2ccccc12)c1cccs1` (configuration not stated), the fold increase is reported as 1.47 and the viability is reported as 36%.
In the case of `CCCCN1C(=O)/C(=C/C=C2/CC(C)(C)CN2C)SC1=S`, the fold increase is reported as 6.16.
For `O=C(COc1cccc2ccccc12)N/N=C/c1ccncc1`, the fold increase was 1.34 and the viability was 92.9%.
With `Cc1cc(N2CCCC2)ccc1/C=C1/C(=O)N(C)C(=S)N1C` the fold increase was 9.58 and the viability was 67.4%.
In the case of `O=C1c2ccccc2S(=O)(=O)c2cc(N3CCC4(CC3)OCCO4)ccc21`, the fold increase is reported as 1.71 and the viability is reported as 98.5%.
Work on `Nc1c(Cl)ncnc1N/N=C/c1ccc2ccccc2n1` yielded a fold increase of 1.52 and a viability of 8.48%.
Work on `COc1ccc(-c2nncnn2)cc1` yielded a fold increase of 4.43.
